In PubChem BioAssay AID504832 (National Center for Advancing Translational Sciences (NCATS), 2011):
Among all 310,000 compounds or so, about 18,000 (5.8%) were called active. Inconclusive means that the source gave no clear call. Such entries were picked first, then a sample of the others. Calls follow the shape of the dose curve; as a rule, active = well fitted inhibition curve with a large enough effect; inconclusive = small, poorly fitted or top-dose-only effect, or another doubt; inactive = no such curve, though single readings can be large or run the other way. No potency is given beside an inconclusive call; the fits are too rough.

Assay: Primary qHTS for delayed death inhibitors of the malarial parasite plastid, 48 hour incubation
Settings: P. falciparum luciferase growth in erythrocytes; series mostly up to 28.7 µM
Summary of the method: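 A one-generation exposure of luciferase-tagged malaria parasites in RPMI 1640/Albumax erythrocyte culture, 37 C and 5% CO2. Inhibition is inferred from decreased luminescence after adding detection reagent.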
% is scaled to controls: 0 for no effect and ±100 for the full control effect; potency is read from the fitted curve at half-maximal effect; tags tell the direction and shape of the fitted curve.

SMILES | Potency | activity change, negative = inhibition
Oc1c(CN2CCCC2)cc(COCc2ccccc2)c2cccnc12 | active: 0.657 µM | –
CCCCn1c(N)c(N(CCOC)C(=O)CCCc2nc3ccccc3c(=O)[nH]2)c(=O)[nH]c1=O | inactive | –
COc1cc(Cl)c(NS(=O)(=O)c2cc3[nH]c(=O)c(=O)[nH]c3cc2C)c(OC)c1 | inconclusive [inhibitor, single point] | –
Cc1nc(S/C(=C/c2ccc(OCc3ccc(C(=O)O)cc3)cc2)C(=O)O)n[nH]1 | inconclusive [inhibitor, single point] | –
COC(=O)c1ccc(-c2c(-c3ccccc3)ncc3cc(F)ccc23)cc1 | inconclusive [inhibitor, full curve, poor fit] | –
COc1cc(C#N)ccc1OCC(=O)Nc1cccc(S(=O)(=O)N2CCCC2)c1 | active: 9.28 µM | –
O=C(COc1ccc(Br)cc1)c1ccc2c(c1)CCCC2 | inactive | –
CO/N=C/c1ccc(N2CCN(C(=O)c3cccc(C(F)(F)F)c3)CC2)c([N+](=O)[O-])c1 | inconclusive [inhibitor, single point] | –
CC(=O)NC(=S)Nc1ccccc1N1CCN(C(=O)c2ccccc2)CC1 | inconclusive [inhibitor, single point] | –
Cc1ccccc1OCC(=O)Nc1ccc2c(c1)n(C)c(=O)n2C | inconclusive [inhibitor, partial curve] | –
COc1ccc(-n2c(N)c(C(=O)NCC3CCCO3)sc2=S)cc1 (stereo not drawn) | inactive | –
CN(C(=O)COc1ccccc1C(=O)NCCOc1ccccc1)c1ccccc1 | inconclusive [inhibitor, partial curve, poor fit] | –
COc1ccc(/C=N/NC(=O)c2cc(OC)c(OC)c(OC)c2)cc1CN1CCc2cc(OC)c(OC)cc2C1C (stereo not drawn) | inconclusive [inhibitor, partial curve, poor fit] | –
CCOc1ccc(NC(=O)CSc2nc(C3CC3)nc3ccccc23)cc1 | inactive | –
Cn1c(SCC(=O)NC2CCCC2)nnc1-c1cccs1 | inactive | –
Cc1cccc(-c2cc3c(nn2)-c2ccccc2C3=O)c1 | active: 1.31 µM | –
Cc1ccc(COc2ccccc2C(=S)N2CCCC2)cc1 | – | inactive: 19.6% [at 5.75 µM]
CC1CCC2(CC1)NC(=O)N(CC(=O)Nc1ccc3c(c1)OCCCO3)C2=O (stereo not drawn) | inconclusive [inhibitor, single point] | –
Cc1ccc(NCC(=O)NNC2=NCCC2)c(C)c1 | inactive | –
COc1ccc(OCC(=O)N/N=C2/C=C(C)CC2)cc1 | inconclusive [inhibitor, single point] | –
CC1=Nc2cc(C(=O)NCCCN3CCN(C)CC3)ccc2Sc2ccc(C)cc21 | inconclusive [inhibitor, partial curve] | –
COc1ccccc1N(C)S(=O)(=O)c1ccc(C(=O)Nc2nc(C)c(C(C)=O)s2)cc1 | active: 11.7 µM | –

SMILES | Potency | activity change, negative = inhibition
COc1ccc(C2CCCN2C(=S)Nc2cccc(C)c2)cc1OC (stereo not drawn) | active: 11.7 µM | –
CC(C)C(=O)Nc1ccc(C(=O)NNC(=S)NC(=O)c2ccco2)cc1 | inconclusive [inhibitor, single point] | –
CCOc1ccccc1N1CC(C(=O)NCCOc2ccccc2OC)CC1=O (stereo not drawn) | inactive | –
Cc1cc(C)cc(OCCn2nnc3ccccc32)c1 | inactive | –
C/C(=N\Nc1cc(N2CCCCC2)nc(C)n1)c1ccc(Br)cc1 | active: 3.7 µM | –
CC(C)n1c(SCC(=O)Nc2ccc(N3CCOCC3)cc2)nnc1-c1ccco1 | inactive | –
CCSc1nnc(NC(=O)c2nc(-c3ccccc3)n(-c3ccccc3)n2)s1 | inconclusive [inhibitor, single point] | –
OCCCCNCc1ccc(OCc2ccc(Cl)cc2)cc1 | inconclusive [inhibitor, partial curve, poor fit] | –
CCOC(=O)Cc1csc(NC(=S)NC(=O)c2ccccc2)n1 | inconclusive [inhibitor, partial curve, poor fit] | –
Cc1cccc(N2C(=O)CC(SC(=Nc3ccccc3)Nc3ccccc3)C2=O)c1 (stereo not drawn) | inconclusive [inhibitor, single point] | –
C/C(=N\NC(=O)COc1ccc(C)cc1Br)c1cc([N+](=O)[O-])cs1 | inconclusive [inhibitor, single point] | –
CCOC(=O)[C@H]1[C@H]2COc3ccc(Br)cc3[C@@H]2N2C(=O)CN(Cc3ccc(C)cc3)C(=O)[C@@]12C | active: 14.7 µM | –
Cc1c(C(=O)OCC(=O)N(CC(C)C)c2c(N)n(Cc3ccccc3)c(=O)[nH]c2=O)oc2ccccc12 | inconclusive [inhibitor, single point] | –
COc1cccc(NC(=O)C2CCN(C(=O)[C@@H]3Cc4ccccc4CN3)CC2)c1 | inconclusive [inhibitor, single point] | –
O=[N+]([O-])c1cccc(CP(=O)(c2ccccc2)c2ccccc2)c1 | inconclusive [inhibitor, single point] | –
CN(CC(=O)Nc1cccc(F)c1)C(=O)c1cn(-c2ccccc2)nc1-c1ccc(Cl)cc1 | active: 14.7 µM | –
COc1cccc(-c2sc3ccc(OC)cc3c2C#CC2(O)CCCCC2)c1 | inconclusive [inhibitor, partial curve] | –
Cc1cccc(NS(=O)(=O)c2ccc(C(=O)N3CCCCCC3)cc2)c1C | inconclusive [inhibitor, single point] | –
Cn1c(N)c(C(=O)COC(=O)C(Cc2ccccc2)NC(=O)c2ccccc2)c(=O)n(C)c1=O (stereo not drawn) | inconclusive [inhibitor, partial curve, poor fit] | –
COc1cccc(CNC(=O)C2CCCN(C(=O)c3ccc(Cl)cc3)C2)c1 (stereo not drawn) | inconclusive [inhibitor, single point] | –
CCc1cc(=O)oc2cc(C)cc(OC(C)C(=O)NCCN3CCOCC3)c12 (stereo not drawn) | inconclusive [inhibitor, single point] | –
